Laboratory results from the antibiotic and cytotoxicity screens of Wong et al. (2023).
Some of the results follow.

Columns and labels:
HSkMC = human skeletal muscle cells; experiment: cytotoxicity call (relative viability < 0.9); settings: 10 µM
HepG2 = experiment: cytotoxicity call (relative viability < 0.9); settings: 10 µM
S. aureus RN4220 = experiment: growth inhibition call (relative growth <= 0.2); settings: 50 µM

| SMILES | cytotoxicity call (HSkMC) | cytotoxicity call (HepG2) | growth inhibition call (S. aureus RN4220) |
| --- | --- | --- | --- |
| C[C@H](CO)N1C[C@H](C)[C@H](CN(C)S(C)(=O)=O)Oc2ccc(NC(=O)CCN3CCOCC3)cc2C1=O | inactive | inactive | inactive |
| C[C@@H]1CN([C@H](C)CO)C(=O)c2cc(NS(C)(=O)=O)ccc2O[C@H]1CN(C)C(=O)Nc1ccc(C(F)(F)F)cc1 | inactive | inactive | inactive |
| C[C@H](CO)N1C[C@H](C)[C@@H](CN(C)Cc2ccc(C(=O)O)cc2)OCCCC[C@H](C)Oc2ccc(NC(=O)Nc3ccc(C(F)(F)F)cc3)cc2C1=O | inactive | inactive | inactive |
| C[C@H]1CN([C@@H](C)CO)C(=O)c2cccc(NS(=O)(=O)c3ccc(F)cc3)c2O[C@H]1CN(C)S(=O)(=O)c1cn(C)cn1 | inactive | inactive | inactive |
| C[C@@H]1CN([C@H](C)CO)C(=O)CCCn2cc(nn2)CO[C@@H]1CN(C)C(=O)Nc1ccc2c(c1)OCO2 | inactive | inactive | inactive |
| C[C@@H]1CCCCO[C@H](CN(C)Cc2ccc(C(=O)O)cc2)[C@@H](C)CN([C@@H](C)CO)C(=O)c2cc(NS(=O)(=O)c3cccs3)ccc2O1 | inactive | inactive | inactive |
| COc1ccc(S(=O)(=O)N2C[C@H](O)COC[C@@H]3O[C@@H](CC(=O)N[C@H]4CCN(Cc5ccccc5)C4)CC[C@H]32)cc1 | inactive | inactive | inactive |
| Cc1cc(C(=O)Nc2cccc3c2O[C@H](CN(C)S(C)(=O)=O)[C@H](C)CN([C@@H](C)CO)C3=O)n(C)n1 | inactive | inactive | inactive |
| O=C(C[C@@H]1CC[C@@H](NS(=O)(=O)c2ccccc2)[C@H](CO)O1)NCc1ccncn1 | inactive | inactive | inactive |
| O=C(C[C@H]1CC[C@H]2NC[C@H](O)COC[C@@H]2O1)NCCN1CCCC1 | inactive | inactive | inactive |
| C[C@@H]1CN([C@H](C)CO)C(=O)c2cc(NS(=O)(=O)c3ccccc3)ccc2O[C@@H]1CN(C)CC1CC1 | inactive | inactive | inactive |
| CC(=O)Nc1cc(Cl)ccc1C | inactive | inactive | inactive |
| COc1ccc(CCN(C)CCCOc2ccc(S(=O)(=O)c3c(C(C)C)cn4ccccc34)cc2)cc1OC | active | active | inactive |
| C[C@@H]1CN([C@@H](C)CO)S(=O)(=O)c2ccc(-c3cccnc3)cc2O[C@H]1CN(C)CC1CCOCC1 | inactive | inactive | inactive |
| Cc1cc(C)n2nc(N)nc2n1 | inactive | inactive | inactive |
| CC1CC=CC=CC=CC=CC(OC2OC(C)C(O)C(N)C2O)CC2OC(O)(CC(O)CC3OC3C=CC(=O)O1)CC(O)C2C(=O)O (stereo not given) | inactive | inactive | inactive |
| Cc1noc(C)c1S(=O)(=O)Nc1ccc2c(c1)C(=O)N([C@H](C)CO)C[C@H](C)[C@@H](CN(C)Cc1ccc(Oc3ccccc3)cc1)O2 | inactive | inactive | inactive |
| C[C@@H]1CN([C@@H](C)CO)C(=O)c2cc(NC(=O)Nc3ccc4c(c3)OCO4)ccc2O[C@H]1CN(C)Cc1ccc(Cl)c(Cl)c1 | inactive | active | inactive |
| O=C(O)C[C@H](O)C(=O)O | inactive | inactive | inactive |
| COCC(=O)N(C)C[C@H]1Oc2cc(C#Cc3cccnc3)ccc2S(=O)(=O)N([C@H](C)CO)C[C@@H]1C | inactive | inactive | inactive |
| CC1=C(C(=O)O)N2C(=O)C(NC(=O)C(N)c3ccccc3)C2SC1 (stereo not given) | inactive | inactive | inactive |
| Cc1ccc(S(=O)(=O)Nc2ccc3c(c2)C(=O)N([C@@H](C)CO)C[C@@H](C)[C@@H](CN(C)S(=O)(=O)c2ccc(Cl)cc2)OCCCC[C@@H](C)O3)cc1 | inactive | inactive | inactive |
| CNC[C@H]1OCCCC[C@@H](C)Oc2ccc(NS(=O)(=O)c3cn(C)cn3)cc2C(=O)N([C@H](C)CO)C[C@H]1C | inactive | inactive | inactive |
| CC(C)N1CC=C[C@@]23O[C@@H]4C=CCOC(=O)[C@@H]4[C@H]2C(=O)N(CCCO)[C@@H]3C1=O | inactive | inactive | inactive |
| O=C(O)CNc1ccc(C(=O)O)cc1 | inactive | inactive | inactive |
| Cc1ccc(S(=O)(=O)N(C)C[C@@H]2OCCCC[C@@H](C)Oc3ccc(NC(=O)CCC(F)(F)F)cc3C(=O)N([C@@H](C)CO)C[C@@H]2C)cc1 | inactive | inactive | inactive |
| CO[C@@H]1CN(C)C(=O)c2cc(NS(=O)(=O)c3ccccc3F)ccc2OC[C@@H](C)N(S(C)(=O)=O)C[C@H]1C | inactive | inactive | inactive |
| O=C(NC(CO)C(O)c1ccc([N+](=O)[O-])cc1)C(Cl)Cl (stereo not given) | inactive | active | active |
| CC(C)(C)C(=O)Nc1c[nH]c(=O)[nH]c1=O | inactive | inactive | inactive |
| CN[C@H](CC(C)C)C(=O)N[C@H]1C(=O)N[C@@H](CC(N)=O)C(=O)N[C@H]2C(=O)N[C@H]3C(=O)N[C@H](C(=O)N[C@H](C(=O)O)c4cc(O)cc(O)c4-c4cc3ccc4O)[C@H](O)c3ccc(c(Cl)c3)Oc3cc2cc(c3O[C@@H]2O[C@H](CO)[C@@H](O)[C@H](O)[C@H]2O[C@H]2C[C@](C)(N)[C@H](O)[C@H](C)O2)Oc2ccc(cc2Cl)[C@H]1O | inactive | inactive | active |
